Screen size: about 48,000 compounds; about 1,200 (2.5%) were called active. Not shown: some 2% with an inconclusive outcome.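 The calls were made as follows: active = activation of at least 60% and not above a set upper limit (about 1 call in 100 departs from these limits); inconclusive = activation of 40% to 60%, or above that upper limit; inactive = activation under 40%.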 Some of the results follow.
Each compound was assayed against Probable G-protein coupled receptor 32 (Homo sapiens) (UniProt O75388) (assay: qHTS for Agonists of Human Resolvin D1 Receptor DRV1). Settings: CHO-K1 GPR32 beta-arrestin PathHunter luminescence, 90 min; at 76.9 µM; stronger effect = higher value; zero percent set by DMSO-only wells.
Summary of the method: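 Readings come from a cell-based beta-arrestin complementation format: CHO-K1 GPR32 stable cells (2,500/well) treated 90 min with compounds, then beta-Gal substrate added for 1 h before chemiluminescence imaging.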
Also: 0% is about no effect.

Chain of UniProt O75388 (O75388 whole entry, looked up): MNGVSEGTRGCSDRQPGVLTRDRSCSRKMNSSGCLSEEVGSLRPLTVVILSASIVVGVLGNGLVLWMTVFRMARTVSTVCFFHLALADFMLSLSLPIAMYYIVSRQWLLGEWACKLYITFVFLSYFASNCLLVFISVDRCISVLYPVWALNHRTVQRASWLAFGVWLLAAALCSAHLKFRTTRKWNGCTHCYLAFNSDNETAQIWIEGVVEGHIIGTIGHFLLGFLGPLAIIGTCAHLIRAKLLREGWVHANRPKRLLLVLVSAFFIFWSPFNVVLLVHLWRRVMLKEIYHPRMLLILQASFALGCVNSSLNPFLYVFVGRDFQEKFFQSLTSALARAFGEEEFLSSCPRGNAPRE

activation, inactive:
COc1ccc(-c2cc(C(F)(F)F)n3nc(C(=O)Nc4sc5c(c4C(=O)OC(C)C)CCC(C)C5)cc3n2)cc1 (configuration not stated) -5.51%
CCCN(CCC)C(=O)C1CCCN(S(=O)(=O)c2cc(Br)cc3c2N(C(=O)CC)CC3)C1 (configuration not stated) -4%
O=C(Nc1ccc(-c2nc3cc(NC(=O)c4ccc(Cl)cc4)ccc3o2)cc1)c1ccc(Cl)cc1 15.1%
Cc1cc(C)cc(NC(=O)CCc2c(C)nc3c(c2C)c(=O)n(C)c(=O)n3C)c1 -2.21%
O=C(c1ccc2c(c1)N(Cc1ccc(Cl)cc1)C(=O)c1ccccc1S2(=O)=O)N1CCN(Cc2ccccc2)CC1 -18.6%
CCc1ccc(-n2nc(CO)c(C(=O)NCc3cccnc3)n2)cc1 -2.03%
COc1ccc(N2C(=O)CCSC23C(=O)N(Cc2ccc(F)cc2)c2ccccc23)cc1 (configuration not stated) -32.2%
Cc1ccc(-c2onc(C)c2C)cc1S(=O)(=O)Nc1cccc(Cl)c1C -8.03%
Cc1nc2ccc(S(=O)(=O)NC(C(=O)N3CCN(c4cccc(Cl)c4)CC3)C(C)C)cc2s1 (configuration not stated) -3.98%
O=S(=O)(c1ccc(Br)cc1)c1nnn2c1nc(NCCc1ccccc1)c1sccc12 -5.24%
Cc1ccc(CCNC(=O)CCn2nc(-c3ccc(Cl)cc3)ccc2=O)cc1 31.9%
Cc1cn2c(=O)c(S(=O)(=O)Nc3ccc(N4CCOCC4)cc3)c(C)nc2s1 -2.49%
Cc1nc(N2CCCC2)ncc1C(=O)NCc1ccc(F)cc1 0.566%
CC1CCN(S(=O)(=O)c2cc(C(=O)NCc3ccccc3)n(C)c2)CC1 7.27%
COc1cc2ncc3c(-c4ccccc4)nn(CC(=O)NC4CCCCC4)c3c2cc1OC -3.35%
COCCNC(=O)c1cnn(-c2cccc(C)c2)c1-n1cccc1 -10.9%
CCOCCCn1c(=N)c(C(=O)NC(C)c2ccccc2)cc2c(=O)n3cccc(C)c3nc21 (configuration not stated) -5.48%
CN(C(=O)c1ccc2c(c1)N(Cc1ccc(F)cc1)C(=O)c1ccccc1S2(=O)=O)C1CCCCC1 -17%
CCC(CC)C(=O)Nc1nnc(S(=O)(=O)N2c3ccccc3CC2C)s1 (configuration not stated) 2.55%
COc1ccc(C2=C(C)C(N3CCN(c4ccc(OC)cc4)CC3)=NS2(=O)=O)cc1 -8.67%
Fc1cccc(-c2nnn3c2nc(NCc2ccc4c(c2)OCO4)c2ccccc23)c1 2.75%
Cc1cc(N2CCC(C(=O)Nc3ccccc3Cl)CC2)n2nc(C)c(-c3ccc(Cl)cc3)c2n1 4.33%

— PubChem BioAssay AID1346428 (National Center for Advancing Translational Sciences (NCATS), 2018)
